In PubChem BioAssay AID488969 (Vanderbilt High Throughput Screening Facility, 2010):
Whole data set: some 110,000 compounds, median “z-score” near -0.1, cut for the highest 2% near 2. The list shows a part of the results. The source made the active and inactive calls.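 The calls were made as follows: active = z-score in the third read window above 3 or below -3; inactive = the rest.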

What follows are molecules tested against Metabotropic glutamate receptor 8 (Rattus norvegicus) (UniProt P70579) (assay: rat mGluR8 modulators via GIRK flux, primary screen, cell-based, thallium flux, HTS (AID 488969)). Settings: HEK293 rat mGluR8, GIRK (G protein-gated inwardly rectifying potassium channel) thallium flux, FluoZin2; at 10 µM; stronger effect = higher value; submaximal glutamate (EC20) added with thallium.
Chain of UniProt P70579 (P70579 whole entry, looked up): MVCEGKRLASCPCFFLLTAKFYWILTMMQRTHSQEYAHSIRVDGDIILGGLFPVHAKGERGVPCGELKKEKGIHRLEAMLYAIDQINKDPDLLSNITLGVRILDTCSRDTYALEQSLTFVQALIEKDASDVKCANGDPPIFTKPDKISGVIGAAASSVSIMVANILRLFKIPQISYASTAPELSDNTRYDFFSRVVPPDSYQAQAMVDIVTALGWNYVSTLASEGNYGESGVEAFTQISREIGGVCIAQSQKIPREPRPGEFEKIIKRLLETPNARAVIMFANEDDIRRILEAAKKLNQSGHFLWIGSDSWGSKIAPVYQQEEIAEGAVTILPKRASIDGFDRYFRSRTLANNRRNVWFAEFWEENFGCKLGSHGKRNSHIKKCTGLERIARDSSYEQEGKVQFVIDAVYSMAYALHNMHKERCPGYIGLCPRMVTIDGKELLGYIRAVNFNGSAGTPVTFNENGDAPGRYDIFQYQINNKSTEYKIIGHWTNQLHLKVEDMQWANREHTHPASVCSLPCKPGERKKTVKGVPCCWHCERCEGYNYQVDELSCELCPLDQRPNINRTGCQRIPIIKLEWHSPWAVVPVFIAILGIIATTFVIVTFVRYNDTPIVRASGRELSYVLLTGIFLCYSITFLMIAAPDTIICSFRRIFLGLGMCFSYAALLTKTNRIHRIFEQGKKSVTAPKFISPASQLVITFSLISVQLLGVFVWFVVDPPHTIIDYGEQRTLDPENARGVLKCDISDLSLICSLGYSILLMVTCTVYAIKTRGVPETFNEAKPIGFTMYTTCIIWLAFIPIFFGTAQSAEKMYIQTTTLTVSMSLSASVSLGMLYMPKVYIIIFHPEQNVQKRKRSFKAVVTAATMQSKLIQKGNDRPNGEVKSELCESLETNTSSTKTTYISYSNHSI

Row | Compound | z-score
1 | Clc1ccc(Oc2ncnc3oc(-c4ccccc4)cc23)cc1 | 0.177
2 | O=c1cnnc(SCCc2ccccc2)[nH]1 | -0.0811
3 | CCCn1nnc(NC(=O)c2ccc(Br)cc2)n1 | -0.128
4 | Cn1c(-c2ccc(F)cc2)cnc1NCc1ccc(F)cc1 | -0.0912
5 | CCC(C)NC(=O)C1CCN(S(=O)(=O)c2cccnc2)CC1 (stereo unspecified) | -0.122
6 | CN(Cc1ccccc1)Cc1nc2c(c(=O)n(C)c(=O)n2C)n1Cc1ccc(F)cc1 | -1.19
7 | CN1CCN(Cc2nc3c(c(=O)n(C)c(=O)n3C)n2CCCc2ccccc2)CC1 | -0.283
8 | O=C(Cc1c(F)cccc1Cl)N1CCN(C(=O)c2ccco2)CC1 | -0.28
9 | Cc1nc(-c2ccc(C(=O)O)cc2)cs1 | 1.35
10 | COc1cnc(-c2ccccc2)nc1Oc1cccc(C)c1C | -0.012
11 | COc1cc(N2C(=O)NC3CC2(C)Oc2ccccc23)cc(OC)c1OC (stereo unspecified) | 0.0792
12 | CCn1c(SCC(=O)NC2CCCc3ccccc32)nnc1-c1cccs1 (stereo unspecified) | -0.152
13 | Cc1ccc(C2=CC(c3ccc(N(C)C)cc3)n3nnnc3N2)cc1 (stereo unspecified) | -0.282
14 | Cc1ccc(C(=O)NC(Cc2c[nH]c3ccccc23)C(=O)O)o1 (stereo unspecified) | 0.57
15 | O=S(=O)(Cc1ccccc1)N1CCCCCC1 | 0.337
16 | COC(=O)COc1ccc(S(=O)(=O)N2CCc3ccccc3C2)cc1C | -0.71
17 | Cn1c(=O)c2c(nc(NCCNC(=O)c3ccco3)n2Cc2ccccc2Cl)n(C)c1=O | -0.224
18 | Cc1cccc2cc3c(NC(=O)CC(C)C)nn(C)c3nc12 | -0.363
19 | CC1(C)Cc2c(c(N3CCCCC3)[nH]c(=S)c2C#N)CS1 | -0.239
20 | Cn1cnnc1SCc1ccccc1Br | 0.198
21 | COCCCNC(NC(=O)c1ccc(Cl)cc1)C(Cl)(Cl)Cl (stereo unspecified) | -0.155
22 | CCN(Cc1ccccc1)C(c1ccc(Cl)cc1)c1nnnn1C(C)(C)C (stereo unspecified) | -0.18
23 | CCCn1nc(C(=O)NCCN2CCOCC2)c2ccccc2c1=O | 0.608

Row | Compound | z-score
24 | O=C(c1ccco1)N1CCN(c2ncnc3scc(-c4cccs4)c23)CC1 | 0.729
25 | O=c1[nH]c(CN2CCN(C/C=C/c3ccccc3)CC2)nc2cc(Cl)ccc12 | -0.475
26 | Cc1[nH]c2ccccc2c1C(c1ccncc1)N1CCN(c2ccc(F)cc2)CC1 (stereo unspecified) | 0.133
27 | O=C(CSc1nnc(-c2ccccc2)n1-c1ccc(Cl)cc1)NNC(=S)Nc1ccccc1 | -0.142
28 | Cc1ccc(S(=O)(=O)N2CCCC(C(=O)O)C2)s1 (stereo unspecified) | -0.401
29 | COc1ccc(NC(=O)CC2C(=O)N(c3cccc(OC)c3)C(=O)N2CCC(C)C)cc1 (stereo unspecified) | -0.168
30 | O=C(O)CCC(=O)Nc1nc2nc(-c3ccccc3)cc(-c3ccccc3)n2n1 | -0.35
31 | O=C(OCC(=O)N1CCCc2ccccc21)c1cccnc1Cl | -0.516
32 | CCCCn1c(N)c(N(CCC(C)C)C(=O)CSc2nnc3ccccn23)c(=O)[nH]c1=O | -0.0171
33 | O=S(=O)(Nc1ccc(S(=O)(=O)Nc2ccccc2)cc1)c1ccccc1 | -0.31
34 | Cc1ccc(-c2noc(CCC(=O)N3CCCC3)n2)cc1 | -0.236
35 | O=C(CCCCCN1C(=O)c2ccccc2C1=O)Nc1ccccc1 | -0.0897
36 | CC(NC(=O)c1cccs1)C(c1cccs1)N1CCN(Cc2ccccc2)CC1 (stereo unspecified) | -0.533
37 | COc1ccc(CCNC(=O)COc2ccc(S(=O)(=O)NC3CCCCC3)cc2Cl)cc1 | -0.000925
38 | Cn1nc(C(F)(F)F)c2cc(C(=O)NC3CC3)sc21 | 0.0929
39 | C[N+](C)(C)CCNC(=O)c1c(O)c2c([nH]c1=O)CCCC2 | 0.798
40 | CCc1nnc(NC(=O)c2ccc(-c3cccc(C(F)(F)F)c3)o2)s1 | -1.43
41 | O=C(Nc1nccs1)C1CCN(S(=O)(=O)c2ccc(Cl)c(C(F)(F)F)c2)CC1 | 0.0753
42 | CC(=O)N1CC2(C)CN(C(C)=O)CC(C)(C1)C2 | -0.26
43 | CC(C)[C@H](NS(=O)(=O)c1ccccc1)C(=O)OCn1nnc2ccccc2c1=O | 0.23
44 | Cc1ccc(-c2nn(-c3ccccc3)c3[nH]c(=O)c(CNCc4ccccc4)cc23)cc1 | -0.221
45 | CCOC(=O)c1ccc(NC(=O)CC2NCCNC2=O)cc1 (stereo unspecified) | -0.0898
46 | C=CCc1c(C)nc(SC)nc1Nc1ccc(C)cc1 | -0.584

Row | Compound | z-score
47 | O=C(Cn1cnc2c(nnn2-c2ccc(F)cc2)c1=O)NCc1ccco1 | -0.127
48 | Cc1nn2c3ccccc3nc2c2ccccc12 | -1.65
49 | NC(=S)N/N=C/c1ccc(C(F)(F)F)cc1 | 0.721
50 | COc1ccc(C2CC23N=C(c2ccccc2)OC3=O)cc1 (stereo unspecified) | -0.00853
51 | Cc1nn(-c2ccccc2)c(Cl)c1/C=C(\CC(=O)O)c1nc2ccccc2s1 | 0.0315
52 | O=C(c1ccc(Cl)c(Cl)c1)c1cnc(Nc2ccccc2)s1 | -0.0234
53 | FC(F)(F)c1nc2ccccc2n2c(-c3ccc(Cl)cc3)nnc12 | -0.021
54 | O=C(O)c1ccc(NS(=O)(=O)c2ccc3nnn(O)c3c2)cc1 | -0.361
55 | COc1cccc(N2CCN(C(=S)NCc3ccco3)CC2)c1 | -0.184
56 | CCOc1cc(/C=N/NS(=O)(=O)c2ccccc2)ccc1OS(=O)(=O)c1ccc(C)cc1 | -0.352
57 | CCOn1c(SCC)nc2ccccc2c1=O | -0.299
58 | Cc1cc(NC(=O)C2CCCC2)n(-c2nc3ccccc3[nH]2)n1 | -0.232
59 | O=c1cc(Nc2ccc3c(c2)OCO3)[nH]c(=O)n1-c1ccc(Br)cc1 | 0.146
60 | O=C(CCN1C(=O)c2ccccc2C1=O)Nc1cccnc1 | -0.201
61 | CCc1ccc(C(=O)CSc2nnc(C)c(=O)[nH]2)cc1 | -0.00147
62 | O=C(NCC(=O)N(Cc1ccccc1)C(C(=O)NCC1CCCO1)c1ccccc1)c1cccs1 (stereo unspecified) | -0.243
63 | c1ccc2c(c1)nnn2-c1ncnc2sc3c(c12)CCCC3 | 0.556
64 | Cc1cccc(-n2c(Cc3cc(=O)[nH]c(=O)[nH]3)nnc2SCC(=O)NCC2CCCO2)c1 (stereo unspecified) | -0.0137
65 | Cc1c(Cl)c(=O)oc2cc(OC(C)C)ccc12 | -0.125
66 | O=C(Nc1ccccn1)c1cccc(S(=O)(=O)N2CCCCC2)c1 | -1
67 | CN(C)c1ncc(S(=O)(=O)c2ccc(Cl)cc2)c(-c2ccccc2)n1 | -0.204
68 | COCCn1c(Cc2ccccc2)nnc1SCC(=O)N1CCCCC1C (stereo unspecified) | -0.132
69 | Fc1ccc(Cn2nnnc2C(c2cccs2)N2CCCCCC2)cc1 (stereo unspecified) | 0.381

Row | Compound | z-score
70 | COc1ccc(Cl)cc1NS(=O)(=O)c1ccc(OC)c(OC)c1 | -0.0674
71 | COc1ccc2nc(NC(=S)N(C)C)sc2c1 | active: 14.8
72 | CC(C)(C)Nc1nc(NCc2cccnc2)nc(N2CCOCC2)n1 | -0.236
73 | C[N+](C)(C)CC/C=C1/c2ccccc2CSc2ccccc21 | -0.226
74 | Cc1nc(Nc2ccc3c(c2)OCO3)c2oc3ccccc3c2n1 | -0.335
75 | COc1ccc(C(=O)/C=C/c2ccc(N3CCCCC3)c([N+](=O)[O-])c2)c(OC)c1 | -0.161
76 | COc1cnc(-c2ccccc2)nc1Oc1ccc(C(C)(C)C)cc1 | -0.0375
77 | CCNC(=O)CC1C(=O)N(C)C(=S)N1NC(=O)c1ccc(Cl)cc1 (stereo unspecified) | -0.031
78 | O=[N+]([O-])c1cc(S(=O)(=O)C(F)(F)F)ccc1Sc1nc2ccccc2s1 | 0.0462
79 | Cc1cccc(C(=O)NCCCN2CCCC2=O)c1 | -0.137
80 | N#CCCN(Cc1cccnc1)S(=O)(=O)c1ccc(S(=O)(=O)N2CCCCCC2)cc1 | -1.43
81 | CCOCCCNC(=O)C(=O)NCCCOCC | -0.334
82 | CN1CCCCCC1=Nc1ccccc1C#N | 0.245
83 | CS(=O)(=O)Nc1ccc2c(c1)C(=O)OC2 | 0.424
84 | O=S(=O)(c1ccc2nc(COc3ccc(Cl)cc3Cl)[nH]c2c1)N1CCOCC1 | -0.748
85 | CC(=O)Nc1ccc(Oc2ccc(-c3noc(C)n3)cc2)cc1 | 0.104
86 | O=C(c1ccc(N2CCCC2=O)cc1)N1CCN(c2ccccc2)CC1 | -0.556
87 | O=C(COC(=O)C1CCN(S(=O)(=O)c2ccc3c(c2)OCCO3)CC1)Nc1ccccc1OC(F)F | -0.0924
88 | N#Cc1cn(-c2ccccc2)nc1-c1ccc2c(c1)OCCO2 | -0.106
89 | CSc1sc(C(=O)O)c(C)c1C(C)=O | -0.486
90 | Cc1cc2ncn(/N=C/c3ccc([N+](=O)[O-])o3)c2cc1C | 0.239
91 | COc1cccc(NS(=O)(=O)c2ccc3c(c2)n(C)c(=O)c(=O)n3C)c1 | 0.179
92 | Cc1cccc(N2CC(=O)N(c3cccc(C)c3)CC2=O)c1 | -0.269

Row | Compound | z-score
93 | CCOc1cc(C2NC(=O)NC(c3ccccc3)=C2C(C)=O)ccc1OCC(N)=O (stereo unspecified) | -0.0384
94 | O=C(Oc1ccc(Cl)c2cccnc12)N1CCCCCC1 | -0.103
95 | C/C(=N/NC(=O)c1ccoc1C)c1cccc(NC(=O)C(F)(F)F)c1 | -0.552
96 | O=[N+]([O-])c1ccc(C2Nc3cccc4cccc(c34)N2)cc1 | -0.131
97 | C[C@@]12CC(=O)NC1N(C(=O)c1cccc(C(F)(F)F)c1)C(c1ccccc1OC(=O)c1cccc(C(F)(F)F)c1)C2 (stereo partly specified) | -0.4
98 | CSc1nccc(Oc2cccc(C#N)c2)n1 | -0.149
99 | CSc1ccc(S(=O)(=O)NCc2ccccc2Cl)cc1 | -2.48
100 | COc1ccc(-c2nc(NC(=O)c3ccc(OCC(=O)Nc4ccc(F)cc4)c(OC)c3)sc2C)cc1 | -0.143
101 | O=C(/C=C/c1ccc2c(c1)OCO2)N1CCN(c2ccc(Cl)cc2)CC1 | 0.167
102 | CS(=O)(=O)N(CC(=O)N1CCCCCC1)Cc1ccc(Cl)cc1 | -0.225
103 | COc1ccc(S(=O)(=O)CC(O)CN2CCCC2=O)cc1 (stereo unspecified) | 0.0398
104 | NC(=O)NC(=O)COC(=O)CCCc1c[nH]c2ccccc12 | 0.245
105 | CCOc1cc(C2C(C#N)=C(N)Oc3n[nH]c(C)c32)ccc1OCCN1CCOCC1 (stereo unspecified) | -0.102
106 | CCCc1nc2ccc(NC(=O)c3cccs3)cc2c(=O)n1Cc1ccc(Cl)cc1 | -0.155
107 | Cc1cccc(N2CCCn3c2nc2c3c(=O)n(CCN3CCOCC3)c(=O)n2C)c1 | -0.753
108 | Cc1ccc(OCC(=O)NC(=S)Nc2cccc(C)n2)cc1 | 1.99
109 | CC(=O)Nc1cccc(NC(=O)C2CC(=O)N(c3ccc(C)cc3)C2)c1 (stereo unspecified) | -0.0638
110 | COc1ccc(N2CCN(CC(=O)Nc3cccc(S(=O)(=O)N4CCOCC4)c3)CC2)cc1 | -0.151
111 | C=CC[N+]1(CC#CCOC(c2ccccc2)c2ccccc2)CCOCC1 | 0.0259
